# The list shows a part of the results. At the low end of the ranking, values are background and their order means little.
# Target: T1, GST-Rok-C97-191 (UniProt O34857)
# T1 sequence: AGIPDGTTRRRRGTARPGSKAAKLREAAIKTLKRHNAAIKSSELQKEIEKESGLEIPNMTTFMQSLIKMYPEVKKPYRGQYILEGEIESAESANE
# Assay: protein binding microarray;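 also: rank score from −0.5 (least bound) to 0.5 (best bound)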
# Details: Rok is a gene silencer of Bacillus subtilis; high values mean tight binding; most listed sequences are background and not binding sites; double strand, one strand shown
row,Sequence,binding signal [E-score]
1,AGAACGGG,-0.199
2,AACGGACG,-0.263
3,GGGAGCCA,-0.278
4,ATAGTGAA,0.112
5,ACTATCCA,0.0548
6,CCTTTAAG,-0.088
7,ACACGGGA,-0.268
8,GTGCTATA,0.202
9,CCCACATA,0.0313
10,ATCACGAT,0.0396
11,CAAAATGC,0.175
12,ACGCCGCA,-0.186
13,CGTAATGC,0.0364
14,CTAAAACA,0.0948
15,CCGATTTA,0.0828
16,ATAGGAAC,0.168
17,GCTAAAGC,-0.0334
18,CGGATGTC,-0.0536
19,GGAACTCA,-0.0516
20,ATTACACC,0.0768
21,CGACGCAA,0.0483
22,AACCCGTA,0.057
23,CAACAACC,-0.059
24,GGCACTGA,-0.0696
25,CTAAAGGC,-0.103

row,Sequence,binding signal [E-score]
1,TATATTAA,0.387
2,GGGTTCAA,-0.0476
3,AGGCCACT,-0.0761
4,ACGATCCC,-0.22
5,CCAATCAA,-0.223
6,ACGCAGCG,-0.237
7,ACTTACAC,0.158
8,ACTTCAGA,0.0388
9,AGAAATCT,0.319
10,GTGGTGAA,0.017
11,CTACAAGA,0.16
12,CATCCAAC,-0.0608
13,CACTAGTC,0.0907
14,CGCCCCTC,-0.232
15,CGGTAAAA,0.242
16,CCACTAAC,0.0126
17,AACCTGAT,0.0968
18,CTTAATCA,0.074
19,CAGATTGA,-0.142
20,ACTTCTCT,0.133
21,ATGGCAAA,0.00996
22,AAGTGACT,-0.0548
23,ACCGGAAC,-0.0713
24,CGCTTATC,0.0476
25,ATCGAGTC,0.0553

row,Sequence,binding signal [E-score]
1,GTGCCGTA,0.0486
2,CGTGCATA,0.213
3,CCACTTTA,0.00693
4,ACAGGTGC,-0.0636
5,ACTATTCG,0.259
6,AACTTACG,0.0653
7,CGCCACGA,-0.123
8,CGAGCTTA,-0.195
9,AGGATCGC,-0.173
10,AAACGCCT,-0.107
11,CCAGTGGC,-0.218
12,CAGCCAGG,-0.124
13,CGGTTAGC,-0.121
14,TATCAACA,0.145
15,ATCCGTAC,0.0821
16,TCAAGTAA,0.165
17,AATGTCGT,-0.087
18,GAGTTCCA,-0.0619
19,GTTGGGAA,-0.000542
20,GAGGACAA,-0.0911
21,GGCGCTGA,-0.181
22,ACTTCGAG,-0.0256
23,CCCCCCCG,-0.197
24,CCGGTGAC,-0.192
25,CATTCCGA,-0.0936

row,Sequence,binding signal [E-score]
1,GGTTAAGA,0.0752
2,AGAATTTG,0.161
3,CCCCGCGA,-0.24
4,GGTGGTAC,-0.0595
5,GATACTCC,0.118
6,GGGTGCAC,-0.234
7,GCAGGCCA,-0.453
8,GCAATTAA,0.155
9,GGTCTCAC,-0.0261
10,CTCGCCCA,-0.297
11,AATAAAGA,0.054
12,CACAAGCA,-0.0543
13,AATGTCGA,0.0236
14,CTAGAGTC,-0.0299
15,GCGACGAA,0.103
16,CTGTCCAC,-0.0896
17,GGCGATCA,0.0161
18,CTGATCGA,-0.0841
19,AGTGGTAG,0.378
20,AGGATGTG,-0.00613
21,AACTTAGT,0.299
22,AGGGTTCC,-0.181
23,ACATTTAG,0.146
24,CAGATGTA,0.212
25,TGCGGCCA,-0.0579

row,Sequence,binding signal [E-score]
1,ATAAGGGC,-0.112
2,ACTATATA,0.437
3,AGGGGCCG,-0.404
4,CCCATGTC,-0.141
5,GATGCGGC,-0.254
6,AAATCAAC,0.139
7,AGAGTCAT,0.0549
8,ACGCGTAC,-0.161
9,CGCTGAAA,-0.0809
10,ACGTACAA,0.214
11,CTTATCCC,-0.0531
12,ATTGAAAG,-0.0548
13,CATGGTAA,0.206
14,CCTCAAAA,-0.175
15,AGGGGTAA,-0.0263
16,GTCGCCGA,-0.138
17,ACTGAGTC,-0.137
18,GAGCATCA,-0.097
19,CGCATGTA,0.0887
20,ATTCAAAC,0.00339
21,ATGAATCA,-0.0987
22,AAATCATA,0.164
23,ACTGTAGC,0.134
24,ATCTGAGA,-0.0965
25,ACAACCGA,0.0107

row,Sequence,binding signal [E-score]
1,TGGAAAAA,0.14
2,AAGAGGCA,-0.199
3,AGAGGTTC,-0.316
4,TGATAAAA,0.282
5,GCCGTGAA,-0.176
6,CTCATGTC,-0.127
7,ATAAGTAA,0.236
8,AAAATATG,0.271
9,ATCATTTA,0.279
10,CAATAATA,0.312
11,CTATTACC,0.312
12,ACTCCGAA,0.0133
13,CCACGTCA,-0.0182
14,AGGGCACG,-0.437
15,CTGACGAA,-0.0673
16,GTGGGCGA,-0.102
17,ATAACGTC,0.17
18,CCGTCGAA,0.0267
19,AAGTAAAA,0.335
20,AGAAGAGC,-0.112
21,TTAGTAAA,0.21
22,ACTCTTCC,-0.0663
23,GCCCGCCC,-0.366
24,ACTTATGC,0.0362
25,CTAGCGTC,0.0675

row,Sequence,binding signal [E-score]
1,GGGCAAGA,-0.0879
2,AGTTCCGA,0.0796
3,GCGTAAAC,0.0786
4,AAACCCGT,-0.109
5,ATGCAGCC,-0.133
6,CCATCGAC,-0.132
7,CGCGATCA,-0.257
8,ACCACCGA,0.118
9,ACGGACCG,-0.233
10,GTCCTATA,0.0477
11,CTTTTGCC,-0.0234
12,TACGTATA,0.349
13,AGCCTGAC,-0.0314
14,CCCTTCTC,-0.155
15,CCGTAGTC,-0.208
16,CCTATGCC,0.00707
17,AGCACTTG,-0.0182
18,ATGACCAC,0.0273
19,ACTAAGTC,0.0841
20,CGGAGCCC,-0.287
21,ATAACAAA,0.186
22,CCTGCCTC,-0.188
23,GCTTTTGA,-0.0321
24,AAGTTACG,0.0571
25,CCCTCGCG,-0.358

row,Sequence,binding signal [E-score]
1,AACGAGGG,-0.21
2,CGACGAGA,-0.0061
3,CATTTCTC,0.112
4,CGTCGCGC,0.0236
5,CGAGAACG,-0.128
6,CAACGGAA,0.051
7,CCCTTAGG,-0.213
8,CGTAGCCA,-0.241
9,AATTAAGA,0.169
10,ATGCTGTA,0.212
11,ACGAACAG,-0.0336
12,CCCGTGAG,-0.187
13,ATAACGCC,-0.0672
14,AATGCCTC,-0.242
15,GGTAAGAC,-0.0409
16,GATCCAAA,0.0806
17,GGATACAA,-0.00377
18,GCTTCACC,-0.104
19,GGGCGCAC,-0.239
20,GATACGGA,-0.0098
21,TATACCAA,0.215
22,GTTACGTA,0.196
23,ACCAGGTG,-0.113
24,AGGAATTC,-0.0657
25,ATCCCAAC,0.0333

row,Sequence,binding signal [E-score]
1,TTACTAAA,0.335
2,CCGTAGTA,0.234
3,AGAACTTC,-0.0176
4,CTATTTGA,0.151
5,AAGAGCCG,-0.232
6,CTGACCGC,-0.19
7,ACCGCCTG,-0.264
8,AAGCGACG,-0.0778
9,ACACCGCA,-0.176
10,CCAGCCTA,-0.167
11,CCTCCACC,-0.314
12,CTAGCAGC,-0.0431
13,CTCCGTTA,0.0706
14,GCGCAGGA,-0.0412
15,ATTCGGTG,-0.0955
16,CGTCGAAG,0.00693
17,ATTGAATC,0.0979
18,GTATTGAA,0.118
19,AGTACTTC,0.218
20,AACACCTG,-0.0774
21,ACCTAAGC,-0.0042
22,AATCTGAA,-0.154
23,ACTAAATA,0.354
24,AGGCTCAT,-0.136
25,GCCCCCCA,-0.461

row,Sequence,binding signal [E-score]
1,AAGCCATC,-0.258
2,AGCGTGAA,-0.138
3,TCTCCACA,-0.132
4,CCACGGCA,-0.157
5,CGGGGAAG,-0.0953
6,TAGTGATA,0.292
7,AACCGTTG,-0.0513
8,CTGCTAAG,-0.108
9,AGCTCAAC,0.157
10,GATTTCCA,-0.0225
11,CGGTTGAG,-0.00416
12,CTTATACA,0.263
13,AACATATC,0.233
14,AGGACCCT,-0.23
15,CAACACTG,0.0349
16,CCACTAGG,0.0281
17,AGATAACC,0.136
18,ATGATGAA,0.155
19,CATGTGAA,-0.104
20,ATCAATGC,0.0392
21,AAGAAGGG,-0.273
22,AAGATTTA,0.192
23,ACGCAGTA,0.000553
24,CCCACCGA,-0.138
25,AGATCACA,0.226

row,Sequence,binding signal [E-score]
1,ATAGGTAG,0.358
2,AGCGACCA,-0.0379
3,CCAAATCA,-0.108
4,CTGTTCGC,-0.0902
5,GATCAAAC,-0.074
6,CCCTGTAC,-0.119
7,GCACGGTA,0.294
8,AAACGAGG,-0.106
9,ATTTGATG,0.139
10,CTTGGCGA,-0.0992
11,CAATCGAA,-0.067
12,AACGGCTC,-0.146
13,ATTGGCCA,-0.185
14,ACTGCCCA,-0.0652
15,AAAACACA,0.0394
16,GTCAGCGA,-0.0649
17,ACCGTACC,-0.0769
18,AACAATCT,0.0215
19,CCTACAAA,0.0991
20,GATCAAGC,-0.207
21,AAATATGT,0.287
22,TATATAAA,0.394
23,CTGCCGCC,-0.353
24,ACATTGAT,0.114
25,ATGTAAAC,0.031

row,Sequence,binding signal [E-score]
1,ATTTCTAA,0.357
2,CTTAGTCC,-0.0813
3,AAGGACCA,0.109
4,TATTTGCA,0.199
5,ACTGCGGC,-0.278
6,AAGACGGG,0.0275
7,ACAGTCGC,-0.203
8,CAATTTTC,0.155
9,TGACGCCA,-0.199
10,GGACCTCC,-0.11
11,ACTCCCTG,-0.0834
12,AAGCCGAT,-0.0234
13,GATCAATA,0.0798
14,AACTTTCA,0.141
15,TTCTGAAA,0.0839
16,CAATGACA,-0.0738
17,CAGTTTTC,0.0426
18,AGCGTTAG,-0.144
19,AAGCTTAA,0.0744
20,AAGGTCCG,-0.202
21,ACGCCCGC,-0.218
22,ATCCAGGC,-0.157
23,ACTTTGGA,-0.0486
24,AAAGGTAT,0.211
25,ACTGGCAT,0.00831

row,Sequence,binding signal [E-score]
1,AAGATTAG,0.219
2,CCAATATC,0.0965
3,CCAGGAAC,-0.159
4,ATTGGGCC,-0.215
5,ACAACGCA,0.111
6,AAGCCTCA,-0.158
7,GTTCATAA,-0.0201
8,GAGACTCC,-0.264
9,ATCTCGGA,0.172
10,ATCACATA,0.259
11,GAATGTCA,-0.127
12,ATTGAGGG,-0.0161
13,GTGCACAC,-0.196
14,CAGGGAGA,-0.213
15,AACCAGAG,-0.197
16,CCGGTCTA,0.0379
17,CCCTGCTC,-0.166
18,CTGAGGGA,-0.199
19,GGCGACAA,-0.408
20,GTATACAC,0.185
21,CAGGACCC,-0.103
22,ATGGGCAG,-0.107
23,ATAATCCG,0.0738
24,AGGCAAGG,-0.352
25,AGCCAGGC,-0.154

row,Sequence,binding signal [E-score]
1,CACTTATA,0.281
2,CTCCCATA,0.0179
3,AGAAAAAT,0.134
4,CCCTCGTA,-0.15
5,CTAGTCGA,0.131
6,AAGAAAAG,0.0235
7,CGCTCCGA,-0.146
8,AATTCGAT,0.215
9,AACGGTAT,0.228
10,CATGCCCG,-0.336
11,AGGTTCGC,-0.176
12,TCAGTGAA,-0.229
13,ACACAGGT,-1.45e-06
14,CCGTGGGC,-0.251
15,CTGGGTAC,-0.0998
16,GATTTTAC,0.226
17,AGAGTTCG,-0.129
18,AGTAGAAG,0.276
19,GCTCAGAA,-0.0988

# — PMC6212790
